Holding throughout (experiment): glycan array binding signal (z-score within array); higher = stronger binding
Holding throughout (conditions): glycan notation: IUPAC condensed, linker removed

Experiment [1] has as its target Gal(b1-4)GlcNAc(b1-2)[Gal(b1-4)GlcNAc(b1-6)]Man(a1-6)[Gal(b1-4)GlcNAc(b1-2)Man(a1-3)]Man(b1-4)GlcNAc(b1-4)[Fuc(a1-6)]GlcNAc. Summed up:
(§1)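 Arrays were curated from the Consortium for Functional Glycomics database, 3228 in total, and kept only where the protein sequence was available. Binding is expressed as a within-array Z-score. This score was averaged across arrays of the same protein sequence at different concentrations or buffers and across linkers, and negative values can be read as non-binding.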

Experiment [2] addresses Gal(b1-4)GlcNAc(b1-2)[Gal(b1-4)GlcNAc(b1-6)]Man(a1-6)[GlcNAc(b1-4)][Gal(b1-4)GlcNAc(b1-2)Man(a1-3)]Man(b1-4)GlcNAc(b1-4)GlcNAc. The essentials: as §1
The target in experiment [3] is Gal(b1-4)GlcNAc(b1-2)[Gal(b1-4)GlcNAc(b1-6)]Man(a1-6)[GlcNAc(b1-4)][Gal(b1-4)GlcNAc(b1-2)[Gal(b1-4)GlcNAc(b1-4)]Man(a1-3)]Man(b1-4)GlcNAc(b1-4)[Fuc(a1-6)]GlcNAc. Summed up:
as §1

The target of experiment [4] is Gal(b1-4)GlcNAc(b1-3)Gal(b1-3)GalNAc. Summed up:
as §1

Experiment [5] addresses Gal(b1-4)GlcNAc(b1-3)Gal(b1-3)GlcNAc. The essentials:
as §1

In experiment [6] the target is Gal(b1-4)GlcNAc(b1-3)Gal(b1-4)Glc. Summed up: as §1
The target of experiment [7] is Gal(b1-4)GlcNAc(b1-3)Gal(b1-4)GlcNAc. The essentials:
as §1

Experiment [8] has as its target Gal(b1-4)GlcNAc(b1-3)Gal(b1-4)GlcNAc(b1-2)Man(a1-3)[Gal(b1-4)GlcNAc(b1-3)Gal(b1-4)GlcNAc(b1-2)Man(a1-6)]Man(b1-4)GlcNAc(b1-4)GlcNAc. Summed up: as §1
Experiment [9] has as its target Gal(b1-4)GlcNAc(b1-3)Gal(b1-4)GlcNAc(b1-2)Man(a1-3)[Gal(b1-4)GlcNAc(b1-3)Gal(b1-4)GlcNAc(b1-2)Man(a1-6)]Man(b1-4)GlcNAc(b1-4)[Fuc(a1-6)]GlcNAc. Summed up:
as §1

Experiment [10] deals with Gal(b1-4)GlcNAc(b1-3)Gal(b1-4)GlcNAc(b1-2)[Gal(b1-4)GlcNAc(b1-3)Gal(b1-4)GlcNAc(b1-6)]Man(a1-6)[Gal(b1-4)GlcNAc(b1-3)Gal(b1-4)GlcNAc(b1-2)Man(a1-3)]Man(b1-4)GlcNAc(b1-4)GlcNAc. Summed up:
as §1

Experiment [11] concerns the target Gal(b1-4)GlcNAc(b1-3)Gal(b1-4)GlcNAc(b1-2)[Gal(b1-4)GlcNAc(b1-3)Gal(b1-4)GlcNAc(b1-6)]Man(a1-6)[Gal(b1-4)GlcNAc(b1-3)Gal(b1-4)GlcNAc(b1-2)Man(a1-3)]Man(b1-4)GlcNAc(b1-4)[Fuc(a1-6)]GlcNAc. The essentials:
as §1

Experiment [12] deals with Gal(b1-4)GlcNAc(b1-3)Gal(b1-4)GlcNAc(b1-3)Gal(b1-4)GlcNAc. The essentials:
as §1

In experiment [13] the target is Gal(b1-4)GlcNAc(b1-3)Gal(b1-4)GlcNAc(b1-3)Gal(b1-4)GlcNAc(b1-2)Man(a1-3)[Gal(b1-4)GlcNAc(b1-3)Gal(b1-4)GlcNAc(b1-3)Gal(b1-4)GlcNAc(b1-2)Man(a1-6)]Man(b1-4)GlcNAc(b1-4)GlcNAc. Summed up: as §1
In experiment [14] the target is Gal(b1-4)GlcNAc(b1-3)Gal(b1-4)GlcNAc(b1-3)Gal(b1-4)GlcNAc(b1-2)Man(a1-3)[Gal(b1-4)GlcNAc(b1-3)Gal(b1-4)GlcNAc(b1-3)Gal(b1-4)GlcNAc(b1-2)Man(a1-6)]Man(b1-4)GlcNAc(b1-4)[Fuc(a1-6)]GlcNAc. Summed up:
as §1

Experiment [15] concerns the target Gal(b1-4)GlcNAc(b1-3)Gal(b1-4)GlcNAc(b1-3)Gal(b1-4)GlcNAc(b1-2)[Gal(b1-4)GlcNAc(b1-3)Gal(b1-4)GlcNAc(b1-3)Gal(b1-4)GlcNAc(b1-6)]Man(a1-6)[Gal(b1-4)GlcNAc(b1-3)Gal(b1-4)GlcNAc(b1-3)Gal(b1-4)GlcNAc(b1-2)Man(a1-3)]Man(b1-4)GlcNAc(b1-4)[Fuc(a1-6)]GlcNAc. Summed up:
as §1

Experiment [16] concerns the target Gal(b1-4)GlcNAc(b1-3)Gal(b1-4)GlcNAc(b1-3)Gal(b1-4)GlcNAc(b1-3)Gal(b1-4)GlcNAc(b1-2)Man(a1-3)[Gal(b1-4)GlcNAc(b1-3)Gal(b1-4)GlcNAc(b1-3)Gal(b1-4)GlcNAc(b1-3)Gal(b1-4)GlcNAc(b1-2)Man(a1-6)]Man(b1-4)GlcNAc(b1-4)GlcNAc. Summed up: as §1
The target in experiment [17] is Gal(b1-4)GlcNAc(b1-3)Gal(b1-4)GlcNAc(b1-3)Gal(b1-4)GlcNAc(b1-3)Gal(b1-4)GlcNAc(b1-2)Man(a1-3)[Gal(b1-4)GlcNAc(b1-3)Gal(b1-4)GlcNAc(b1-3)Gal(b1-4)GlcNAc(b1-3)Gal(b1-4)GlcNAc(b1-2)Man(a1-6)]Man(b1-4)GlcNAc(b1-4)[Fuc(a1-6)]GlcNAc. Summed up:
as §1

Experiment [18] addresses Gal(b1-4)GlcNAc(b1-3)Gal(b1-4)GlcNAc(b1-3)Gal(b1-4)GlcNAc(b1-3)Gal(b1-4)GlcNAc(b1-2)[Gal(b1-4)GlcNAc(b1-3)Gal(b1-4)GlcNAc(b1-3)Gal(b1-4)GlcNAc(b1-3)Gal(b1-4)GlcNAc(b1-6)]Man(a1-6)[Gal(b1-4)GlcNAc(b1-3)Gal(b1-4)GlcNAc(b1-3)Gal(b1-4)GlcNAc(b1-3)Gal(b1-4)GlcNAc(b1-2)Man(a1-3)]Man(b1-4)GlcNAc(b1-4)[Fuc(a1-6)]GlcNAc. Summed up:
as §1

The target of experiment [19] is Gal(b1-4)GlcNAc(b1-3)Gal(b1-4)GlcNAc(b1-3)Gal(b1-4)GlcNAc(b1-3)Gal(b1-4)GlcNAc(b1-3)Gal(b1-4)GlcNAc(b1-2)Man(a1-3)[Gal(b1-4)GlcNAc(b1-3)Gal(b1-4)GlcNAc(b1-3)Gal(b1-4)GlcNAc(b1-3)Gal(b1-4)GlcNAc(b1-3)Gal(b1-4)GlcNAc(b1-2)Man(a1-6)]Man(b1-4)GlcNAc(b1-4)GlcNAc. Summed up:
as §1

Experiment [20] concerns the target Gal(b1-4)GlcNAc(b1-3)Gal(b1-4)GlcNAc(b1-3)Gal(b1-4)GlcNAc(b1-3)Gal(b1-4)GlcNAc(b1-3)Gal(b1-4)GlcNAc(b1-2)Man(a1-3)[Gal(b1-4)GlcNAc(b1-3)Gal(b1-4)GlcNAc(b1-3)Gal(b1-4)GlcNAc(b1-3)Gal(b1-4)GlcNAc(b1-3)Gal(b1-4)GlcNAc(b1-2)Man(a1-6)]Man(b1-4)GlcNAc(b1-4)[Fuc(a1-6)]GlcNAc. The essentials: as §1
In experiment [21] the target is Gal(b1-4)GlcNAc(b1-3)Gal(b1-4)GlcNAc(b1-3)Gal(b1-4)GlcNAc(b1-3)Gal(b1-4)GlcNAc(b1-3)Gal(b1-4)GlcNAc(b1-2)[Gal(b1-4)GlcNAc(b1-3)Gal(b1-4)GlcNAc(b1-3)Gal(b1-4)GlcNAc(b1-3)Gal(b1-4)GlcNAc(b1-3)Gal(b1-4)GlcNAc(b1-6)]Man(a1-6)[Gal(b1-4)GlcNAc(b1-3)Gal(b1-4)GlcNAc(b1-3)Gal(b1-4)GlcNAc(b1-3)Gal(b1-4)GlcNAc(b1-3)Gal(b1-4)GlcNAc(b1-2)Man(a1-3)]Man(b1-4)GlcNAc(b1-4)[Fuc(a1-6)]GlcNAc. Summed up:
as §1

The target of experiment [22] is Gal(b1-4)GlcNAc(b1-3)Gal(b1-4)GlcNAc(b1-3)Gal(b1-4)GlcNAc(b1-3)Gal(b1-4)GlcNAc(b1-3)Gal(b1-4)GlcNAc(b1-3)Gal(b1-4)GlcNAc(b1-2)Man(a1-3)[Gal(b1-4)GlcNAc(b1-3)Gal(b1-4)GlcNAc(b1-3)Gal(b1-4)GlcNAc(b1-3)Gal(b1-4)GlcNAc(b1-3)Gal(b1-4)GlcNAc(b1-3)Gal(b1-4)GlcNAc(b1-2)Man(a1-6)]Man(b1-4)GlcNAc(b1-4)GlcNAc. Summed up: as §1
The target of experiment [23] is Gal(b1-4)GlcNAc(b1-3)Gal(b1-4)GlcNAc(b1-3)GalNAc. The essentials: as §1

Some of the results follow.

B1: LSL-150 (Laetiporus sulphureus), Q7Z8V1 (protein)
chain: MTDIYIPPEGLYFRLLGFASRQVIFARNSPSPDVGLSPVNDQATDQYFSLIYGTGEHAGLYAIKSKATGKVLFSRRPAEPYVGQIDGDGRYPDNWFKIEPGKTYLSKYFRLVQPSTGTALVSRTHLQPYFWNHPQTEVFDDQYFTFLFEDHHHHHH
B1: the “glycan array binding signal (z-score)” value is -0.205 in experiment [1]; -0.204 in experiment [2]; -0.205 in experiment [3]; -0.205 in [4]; -0.206 in [5]; -0.195 in experiment [6]. The “glycan array binding signal (z-score)” value was determined as 0.334 in [7]; 0.879 in [8]; 1.87 in [9]; 0.827 in experiment [10]; 2.39 in experiment [11]; 1.3 in experiment [12]. Besides, the “glycan array binding signal (z-score)” value in [13] stood at 3.33; in experiment [14] it was 5.23; in [15], 5.29; in experiment [16], 5.88; in experiment [17], 6.24; in experiment [18], 6.23. Further, the “glycan array binding signal (z-score)” value came to 5.44 in experiment [19]; 6.16 in [20]; 6.2 in experiment [21]; 5.13 in experiment [22]; 0.016 in [23].

The record behind these values is the supplement of paper PMC8728848.
